Data on 96 compounds can be found in PubChem BioAssay AID1508642 (National Center for Advancing Translational Sciences (NCATS), 2021).

Structures are written as SMILES. Out of some 43,000 compounds screened, about 200 (0.47%) were called active. Inconclusive results (about 12%) are left out. Calls come from the whole dose curve; as a rule, active = well fitted cell-killing curve with a large enough effect; inconclusive = small, poorly fitted or top-dose-only effect, or effect the other way; inactive = flat fitted curve, though single readings scatter. The list shows a part of the results.
% is set by controls: 0 for no effect and ±100 for the full control effect.

A short description of this assay: Cell viability qHTS assay in S16 Pmp22-F2sN cells. Note: nearly all actives have a fitted effect of over 65% in size. Conditions: S16 Pmp22-F2sN Schwann cells viability, CellTiter-Glo, 24 h; series mostly up to 57.5 µM; activity change, negative = cytotoxicity: at the top concentration. The method, boiled down: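 S16 Pmp22-F2sN Schwann cells (500-1,000/well) in phenol-red-free DMEM with 10% FBS received 23 nL compound by pin tool for 24 h at 37 °C. Viability was then read as CellTiter-Glo luminescence after 15 min at room temperature.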
A general note: Quantitative high-throughput screening tests each substance at several concentrations.
For the compound `CCCOc1ccc(CNC(=O)C2CCN(C(=O)c3sccc3-n3cccc3)CC2)cc1`, the “activity change, negative = cytotoxicity” value is inactive: -12.1%. For the compound `Cc1cc2oc3c(c(=O)c2cc1C)C(c1ccc(C(C)C)cc1)N(c1nc(C)c(C)s1)C3=O` (stereo unspecified), the “activity change, negative = cytotoxicity” value is inactive: -2.01%. For `Cc1ccc(CNC(=O)CCCN2C(=O)CCn3nc(-c4cccn4C)cc32)cc1` the value was inactive: -17.5%. For `COc1ccc(-c2nc3ccccc3n3c(-c4ccc(OC)cc4)c4c(=O)n(C)c(=O)n(C)c4c23)cc1` the value was inactive: 8.61%; for `CCOc1ccc(CNC(=O)C2CCN(C(=O)N3CC(CC)Oc4ccc(C)cc43)CC2)cc1OC` (stereo unspecified), inactive: -7.78%.

As to `Cc1cc(NC(=O)c2cc(-c3ccc(Cl)c(Cl)c3)on2)n(-c2ccccc2)n1`, the “activity change, negative = cytotoxicity” value is inactive: -2.77%. For `CCOC(=O)CSc1nc2sc3c(c2c(=O)n1-c1ccc(OC)cc1)CC(C(C)C)OC3` (stereo unspecified) the value was inactive: -1.56%; for `COc1ccccc1NC(=O)Cn1c(=O)n(CC2CCC(C(=O)NCCc3ccccc3)CC2)c(=O)c2ccccc21` (stereo unspecified), inactive: 16.5%; for `Cc1ccccc1N1CC(c2nc3ccccc3n2Cc2ccc(Br)cc2)CC1=O` (stereo unspecified), inactive: 2.2%. On to `Cc1cc(Br)ccc1NC(=O)c1c(C)oc2ncnc(N3CCCCC3)c12`, for which the “activity change, negative = cytotoxicity” value is inactive: 9.39%. For `Cc1ccc(CNS(=O)(=O)c2ccc3c(c2)CC(C)N3C(=O)C2CCC2)cc1` (stereo unspecified) the value was inactive: -25.9%. The same measure for `COc1ccc(OC)c(C(=O)CN2C(=O)N(c3ccc(C)cc3)S(=O)(=O)c3ccccc32)c1`: inactive: 0.167%. The same measure for `O=C(Cn1c(-c2cccs2)cc2ccccc21)N1CCN(c2ccc(F)cc2)CC1`: inactive: 9.98%; for `COC(=O)c1c(-c2cccs2)csc1NC(=O)c1ccc(C)cc1`: inactive: 11%; for `Cc1ccccc1NC(=O)CCn1nc(-c2ccccc2)c2ccccc2c1=O`: inactive: -23.8%. As to `CCOc1ccc(Sc2cc(C(=O)NCc3ccccc3Cl)c3ccccc3n2)cc1`, the “activity change, negative = cytotoxicity” value was inactive: -2.81%.

For `CCN(CC)CCOC(=O)c1ccc(NC(=O)c2cc3cc(OC)ccc3oc2=O)cc1`, the “activity change, negative = cytotoxicity” value was inactive: 3.68%. For `COCCNC(=O)CN1C(=O)COc2ccc(S(=O)(=O)N3CCCC3)cc21` the value was inactive: 6.25%. For `Cc1nnc(SCC(=O)Nc2ccc(N(C)C)cc2)[nH]c1=O`, the “activity change, negative = cytotoxicity” value is inactive: 1.63%. For `CCOC(=O)N1CCc2c(sc3c2C(=O)NC(c2ccc(C(=O)OC)cc2)N3)C1` (stereo unspecified), the “activity change, negative = cytotoxicity” value is inactive: -4.97%.

As for `CCc1ccc(NC(=O)Cn2c(=O)n(CCCC(=O)NCCc3ccc(OC)c(OC)c3)c(=O)c3ccccc32)cc1`, the “activity change, negative = cytotoxicity” value was inactive: 12.8%. Turning to `COc1ccccc1CNC(=O)CCCCn1c(=O)c2ccccc2n(CC(=O)Nc2cccc(Cl)c2)c1=O`, the “activity change, negative = cytotoxicity” value was inactive: 29.5%. For `COC(=O)c1cc2oc3ccccc3c2n1Cc1ccccc1Cl` the value was inactive: 14.7%. The same measure for `Cc1cccc(NC(=O)N2CCN3CCCCC3C2)c1C` (stereo unspecified): inactive: -0.297%; for `COc1cc(NC(=O)CCS(=O)(=O)c2ccc3c(c2)n(C)c(=O)c(=O)n3C)cc(OC)c1`: inactive: -3.61%.

Take `Cc1cccc(C)c1Nc1c(-c2ccsc2)nc2cccc(C)n12`: the “activity change, negative = cytotoxicity” value is inactive: 3.06%. The same measure for `COc1ccccc1N1CCN(c2csc3ccccc3c2=O)CC1`: inactive: -0.584%; for `COc1cccc(NC(=O)Cn2c(-c3nonc3N)nc3ccccc32)c1`: inactive: -9.26%. The same measure for `CCc1ccc(NC(=O)C2CCCN(c3nnc(C)c4c(C)n(-c5ccccc5)nc34)C2)cc1` (stereo unspecified): inactive: 4.93%; for `COc1ccc(CNC(=O)C(=O)Nc2cccc(C)c2C)cc1`: inactive: -2.86%.

With `COc1ccc2oc(-c3ccc(NC(=O)c4ccc(Cl)cc4Cl)cc3)nc2c1`, the “activity change, negative = cytotoxicity” value was inactive: 7.16%. For `O=c1c(-c2cc(-c3ccccc3)nc3c2COc2ccccc2-3)coc2ccc(Cl)cc12` the value was inactive: 16.3%.

Take `CC(C)NC(=O)CN1C(=O)c2cccnc2Sc2ccccc21`: the “activity change, negative = cytotoxicity” value is inactive: 6.52%. For `Cc1ccc(CCNC(=O)CCS(=O)(=O)c2cc3c(cc2Cl)NC(=O)CO3)cc1` the value was inactive: -2.21%; for `O=C(OCc1cc(=O)n2nc(C3CC3)sc2n1)c1ccccc1Cl`, inactive: 31.7%; for `COc1ccc(CNC(=O)C2=CC(c3cccc(OC)c3)=NS(=O)(=O)N2C)cc1`, inactive: 1.05%. For `CC(=O)c1cccc(NC(=O)c2cc(C)nc3c2c(C)nn3-c2cccc(Cl)c2C)c1` the value was inactive: -1.77%; for `COc1cccc(-c2nn3c(=O)cc(CN4CCN(C(=O)/C=C/c5ccccc5)CC4)nc3s2)c1`, inactive: -7.32%; for `COc1ccc(NC(=O)Cn2nc(C(F)(F)F)c3c2CCCC3)cc1OC`, inactive: 15%.

Take `CCOc1ccccc1NC(=O)C1=C(C)Nc2ncnn2C1c1cccs1` (stereo unspecified): the “activity change, negative = cytotoxicity” value was inactive: 3.64%. Turning to `Cc1cccc(N2CCN(C(=O)c3ccc4c(Cl)c5c(nc4c3)CCCC5)CC2)c1C`, the “activity change, negative = cytotoxicity” value is inactive: 4.95%. The same measure for `COc1ccc(NC(=O)c2csnn2)cc1`: inactive: 1.33%; for `Cc1ccc(NC(=O)Cn2c(=O)n(Cc3ccc(C(=O)NCc4ccc5c(c4)OCO5)cc3)c(=O)c3ccccc32)cc1`: inactive: 13.3%; for `CCOc1ccc(CNC(=O)CCS(=O)(=O)c2ccc3c(c2)oc(=O)n3C)cc1`: inactive: -16.6%. Regarding `COC(=O)c1c(-c2ccc(Cl)cc2)noc1N1CCN(c2ccc(F)cc2)CC1`, the “activity change, negative = cytotoxicity” value is inactive: 7.99%.

As for `Cc1ccc(-c2nc(-c3cc4cccc(OCc5ccccc5F)c4oc3=O)no2)cc1`, the “activity change, negative = cytotoxicity” value was inactive: 10.6%. For `CCCOc1ccc(C(=O)Nc2ccc3oc(-c4ccc(N(C)C)cc4)nc3c2)cc1` the value was inactive: 12%; for `Cc1c(Cl)cccc1NC(=O)Cn1nnc(-c2nc(-c3ccccc3)no2)c1N`, inactive: 3.74%. For `Cc1cccc(C)c1NC(=O)CSc1nc2ccccc2c2nc(CCc3c(C)n[nH]c3C)nn12` the value was inactive: 5.58%; for `CCCOc1ccc(OC(=O)c2cn(-c3ccc(OC)cc3)c(=O)c3ccccc23)cc1`, inactive: -0.872%. Take `CCCCOC(=O)c1ccc(NC(=O)c2csnn2)cc1`: the “activity change, negative = cytotoxicity” value is inactive: 5.48%. The same measure for `CC1=C(C(=O)Nc2ccccc2)C(c2ccc[nH]2)n2ncnc2N1` (stereo unspecified): inactive: 0.11%; for `Cc1ccccc1OCC(=O)Nc1ccc2nc(SCC(N)=O)sc2c1`: inactive: 0.968%; for `COc1ccccc1N1CCN(Cc2nnc(-c3ccccc3C)o2)CC1`: inactive: 15.6%. For `O=S(=O)(Nc1ccc(C(F)(F)F)cc1)c1ccc2c(c1)OCCO2` the value was inactive: -7.2%. Regarding `CCOC(=O)c1cccc(NC(=O)c2ccc3nc(CCc4ccccc4)oc3c2)c1`, the “activity change, negative = cytotoxicity” value is inactive: -9.94%. Take `O=C(NCCCc1nc2ccccc2n1Cc1cccc(Cl)c1)C1CCCCC1`: the “activity change, negative = cytotoxicity” value was inactive: 5.75%. For `O=C(c1ccc2c(c1)N(Cc1ccc(Cl)cc1)C(=O)c1ccccc1S2=O)N1CCC(Cc2ccccc2)CC1` (stereo unspecified) the value was inactive: -4.5%. For the compound `COCCCn1c(=O)c2sccc2n2c(CCCC(=O)Nc3cccc(C(F)(F)F)c3)nnc12`, the “activity change, negative = cytotoxicity” value was inactive: 1.01%.

As to `Cc1nn(-c2ccc(Cl)cc2)c2nc(-c3cccnc3)cc(C(F)(F)F)c12`, the “activity change, negative = cytotoxicity” value was inactive: 11.5%. The same measure for `COc1ccc(NC(=O)C2CCN(S(=O)(=O)c3c(C)noc3/C=C/c3cccs3)CC2)cc1`: inactive: 1.6%; for `CC(C)N(Cc1ccccc1)C(=O)Cn1ncc2c3ccccc3n(Cc3ccccc3)c2c1=O`: inactive: -23.4%; for `COc1ccc(CCNC(=O)c2cn(C)c3ccc(S(=O)(=O)N4CCOCC4)cc3c2=O)cc1OC`: inactive: -12.7%. For `CCOC(=O)c1ccc(NC(=O)CCCn2c(=O)c3cccn3c3cccnc32)cc1` the value was inactive: 18.9%; for `CN(Cc1ccccc1)C(=O)CCS(=O)(=O)c1ccc2c(c1)oc(=O)n2C`, inactive: -33%. The same measure for `COC(=O)c1ccccc1NC(=O)c1ccc(-c2nc(CSc3ccc(C)cc3)c(C)o2)cc1`: inactive: -1.26%; for `O=C(CSc1ccccc1)NCc1ccc2c(c1)CCN2C(=O)c1ccccc1`: inactive: -4.32%.

On to `COc1cccc(-c2noc(CCCC(=O)NCc3ccco3)n2)c1`, for which the “activity change, negative = cytotoxicity” value was inactive: 4.92%.

As for `Cc1cccc(C)c1OCC(=O)NC(Cc1c[nH]c2ccccc12)C(=O)O` (stereo unspecified), the “activity change, negative = cytotoxicity” value is inactive: 13.5%. In the case of `Cc1ccc(S(=O)(=O)NCc2nc3nc(C)cc(C)n3n2)cc1`, the “activity change, negative = cytotoxicity” value was inactive: -4.67%. In the case of `Cc1ccc(C)c(CN2CCCN(CC(=O)Nc3ccc(C)c(C)c3)S2(=O)=O)c1`, the “activity change, negative = cytotoxicity” value is inactive: 8.44%.

With `Cc1ccc(-n2c(=O)c3c4c(sc3n(CC(=O)Nc3cccc(Cl)c3)c2=O)CCCCC4)cc1C`, the “activity change, negative = cytotoxicity” value is inactive: 17.8%. `COc1cc(Cl)c(C)cc1NC(=O)CCc1nc2cccnc2n1Cc1cccs1`: the “activity change, negative = cytotoxicity” value is inactive: -28.4%. For `CCN(CC)CCCNC(=O)c1ccc(Cn2c(=O)[nH]c3cc(OC)c(OC)cc3c2=O)cc1` the value was inactive: 2.01%. As for `CCOC(=O)c1c(S(=O)(=O)N2CCC(C(=O)N3CCN(c4ccccc4F)CC3)CC2)c(C)n(C)c1C`, the “activity change, negative = cytotoxicity” value was inactive: -2.33%. For `Cn1cc(C(=O)NCc2ccccc2Cl)c(=O)c2cc(S(=O)(=O)N3CCCCCC3)ccc21`, the “activity change, negative = cytotoxicity” value was inactive: 2.7%. Consider `CN(CC(=O)NCc1ccc(F)cc1)S(=O)(=O)c1ccc2[nH]c3c(c2c1)CCCC3`, for which the “activity change, negative = cytotoxicity” value is inactive: -29.7%. The same measure for `COc1ccc(CNc2nc3c(-c4cccc(F)c4)nnn3c3ccccc23)cc1`: inactive: 15.3%; for `Cc1ccc(NC(=O)c2c(C)oc3c2C2=NCCN2C=N3)cc1F`: inactive: -4.26%; for `CCc1ccc(-n2c(=O)c3sc4ccccc4c3n(CC(=O)NCc3ccccc3)c2=O)cc1`: inactive: 4.45%.

Take `Cc1c(Cl)cccc1NC(c1ccc(F)cc1)c1nnc(-c2ccccc2)o1` (stereo unspecified): the “activity change, negative = cytotoxicity” value is inactive: 15.6%. For `O=C(Cn1cccc1C(=O)c1ccccc1)NCc1ccccc1Cl` the value was inactive: 10.3%. Consider `O=C(Nc1cccnc1)c1cc(-c2ccc(Cl)cc2)on1`, for which the “activity change, negative = cytotoxicity” value is inactive: 2.24%. As for `O=C(c1ccc2c(c1)N(Cc1cccc(F)c1)C(=O)c1ccccc1S2)N1CCC2(CC1)OCCO2`, the “activity change, negative = cytotoxicity” value is inactive: -0.252%. Turning to `Cc1cccn2c(=O)cc(CSc3nnc(NC(=O)COc4ccccc4)s3)nc12`, the “activity change, negative = cytotoxicity” value is inactive: 1.05%.

For `COC(=O)c1cc2sccc2n1CC(=O)Nc1ccc(OC)c(OC)c1`, the “activity change, negative = cytotoxicity” value was inactive: -3.83%. The same measure for `Cc1ccc(NC(=O)Nc2cn(CC(C)C)c(=O)c3ccccc23)cc1N(C)C`: inactive: 0.538%; for `COc1ccc(-c2cc(C(C)=O)c(C)n2CCC(=O)NCc2ccc(C)cc2)cc1`: inactive: 1.28%.

Regarding `CCOC(=O)c1cc(S(=O)(=O)N2CCN(c3cccc(C)c3C)CC2)[nH]n1`, the “activity change, negative = cytotoxicity” value was inactive: -3.97%. On to `CNC(=O)c1c(NC(=O)c2nc(SCc3ccc(C)cc3)ncc2Cl)sc2c1CCCC2`, for which the “activity change, negative = cytotoxicity” value is inactive: 1.58%.

With `CCN(c1ccccc1C)S(=O)(=O)c1nnc(NC(=O)c2ccco2)s1`, the “activity change, negative = cytotoxicity” value was inactive: 9.94%. The same measure for `COc1ccccc1OCC(=O)N1CCC(c2nc3ccccc3o2)CC1`: inactive: 3.6%. `Cc1ccc(-n2ncc(C(=O)NC3CCCCC3)c2C2CCN(C(=O)OC(C)(C)C)CC2)cc1`: the “activity change, negative = cytotoxicity” value is inactive: -4.74%. The same measure for `Cc1nc2sccn2c(=O)c1S(=O)(=O)Nc1cc(C(F)(F)F)ccc1Cl`: inactive: 7.16%. The same measure for `Cc1ccc(CCNC(=O)c2ccc3c(c2)nc2n3CCOC2)cc1`: inactive: 18%; for `Cc1ccccc1OCCCCn1nnc2sc3c(c2c1=O)CCC(C)C3` (stereo unspecified): inactive: 12.1%.
